The whole screen tested about 410,000 compounds, of which about 490 (0.12%) were called active. The shares of active, inactive and inconclusive entries below differ from those in the screen. Calls come from the whole dose curve; as a rule, active = well fitted inhibition curve with a large enough effect; inconclusive = small, poorly fitted or top-dose-only effect; inactive = flat fitted curve, though single readings scatter. A potency beside an inconclusive call is a rough fit, not a confirmed value.
These compounds were tested against pyruvate kinase (Trypanosoma brucei) (UniProt Q57TT1) (assay: qHTS of Trypanosoma Brucei Inhibitors). Settings: TbPYK enzyme, Kinase-Glo Plus ATP luminescence, 45 min; series mostly up to 76.8 µM.
Excerpt: Members of the Trypanosomatidae family of parasitic protozoans cause a spectrum of diseases throughout the tropical and subtropical world. Sleeping sickness, caused by two subspecies of Trypanosoma brucei, is endemic to areas of sub-Saharan Africa, while Chagas' disease, a manifestation of Trypanosoma cruzi infection, is prevalent throughout Central and South America. In addition, many species of Leishmania are responsible for a range of cutaneous and visceral diseases, causing ulcers, destructive lesions and kalaazar, a lethal infection of the viscera. These diseases cause severe public health and economic burdens on populations that are often already caught in a tragic cycle of poverty, poor nutrition and disease. Collectively, parasites of the trypanosomatid family infect 30 million people worldwide (~500 million live in endemic areas), and account for ~130K deaths annually. Existing treatments have developed little in the past 50 years, and suffer from toxicity, poor efficacy and resistance; the goal of this project is to develop lead drugs that will be suitable for entry into pre-clinical trials.
Glycolysis in axenically cultured T. cruzi, representing the intracellular pathogenic stage, is also essential for these parasites. {Engel, 1987} This project aims to discover and optimize selective inhibitors of the glycolytic enzyme pyruvate kinase (PYK) from Trypanosoma brucei, the parasite that causes sleeping sickness. […] Trypanosomatid PYKs show significant differences from their human counterparts including only 47-50% sequence identity and different allosteric and activation properties.{Callens, 1992} To this end, a qHTS was done against the MLSMR to discover inhibitors.
NIH Molecular Libraries Probe Production Network [MLPCN]
NIH Chemical Genomics Center [NCGC]
PI Name: Malcolm Walkinshaw, University of Edinburgh
2 uL of TbPYK/substrate buffer (columns 1-3, 5-48) are dispensed into Greiner white solid bottom 1536-well assay plates; column 4 receives only TEA buffer as 0x TbPYK controls. Compounds are then transferred via Kalypsys pin tool equipped with 1536-pin array (10 nL slotted pins, V&P Scientific, San Diego, CA). Following addition of compound, 2 uL of ADP (130 uM final concentration, all columns) is added to initiate the reaction. The plates are then incubated at room temperature for 45 minutes. Kinase-Glo Plus reagent is added (3 uL) and plates incubated for 10 minutes, before being transferred to a ViewLux high-throughput CCD imager (PerkinElmer) wherein single end-point measurements of luminescence are acquired using a clear filter. All reagents are diluted in an assay buffer consisting of 50 mM TEA (pH 7.2), 100 mM KCl, 10 mM MgCl2, 0.05% BSA and 0.01% Tween-20.
All screening operations will be performed on a fully integrated robotic system (Kalypsys, San Diego, CA) containing one RX-130 and two RX-90 anthropomorphic robotic arms (Staeubli, Duncan, SC). Library plates will be screened starting from the lowest and proceeding to the highest concentration. Vehicle-only plates, with DMSO being pin-transferred to columns 5-48, will be inserted uniformly at the beginning and the end of each library in order to monitor and record any shifts in the background, which can be affected by reagent dispensers or loss in enzyme activity over time. Screening data will be corrected, normalized, and concentration-effect relationships will be derived by using publicly-available curve fitting algorithms developed in-house (http://ncgc.nih.gov/pub/openhts).
Note: nearly all actives have a fitted effect of over 50% in size.
Potency is the fitted concentration of half-maximal effect; tags give direction and shape of the fitted curve.

Row | SMILES | Potency
1 | CCOc1ccc(S(=O)(=O)N(C(=O)c2ccco2)c2cc3sc(=O)oc3c3ccccc23)cc1 | inconclusive: 39.8 µM [inhibitor, partial curve, poor fit]
2 | Cc1cc(Cl)nc(N)n1 | inactive
3 | O=C1C=C(c2ccccc2)C(=O)N1Nc1ccccc1 | inconclusive: 15.8 µM [inhibitor, partial curve]
4 | NC(=O)c1ccc(N2CCN(c3ccc(O)cc3)CC2)c([N+](=O)[O-])c1 | inconclusive: 25.1 µM [inhibitor, partial curve]
5 | CCn1c(CNC(=O)c2ccc(OC)cc2)nnc1SCC(=O)c1ccccc1 | inconclusive: 39.8 µM [inhibitor, single point]
6 | Cc1ccc(-n2c(CC#N)n[nH]c2=S)c(C)c1 | inconclusive: 8.91 µM [inhibitor, partial curve]
7 | CCOC(=O)c1c(NC(=O)OC)sc(C(=O)N(C)C)c1C | inconclusive: 22.4 µM [inhibitor, partial curve]
8 | FC(F)(F)c1ccc2c(c1)NCC1CCCN21 (stereo not drawn) | inactive
9 | COc1ccc(NS(=O)(=O)c2ccc(OC)c(N(C)S(=O)(=O)c3ccc(Cl)cc3)c2)cc1 | inactive
10 | COc1cc(Cl)c(C)cc1NC(=O)CSc1nnc(-c2ccco2)n1CC(C)C | inconclusive: 50.1 µM [inhibitor, single point]
11 | CC(C)n1c(-c2ccccc2F)n[nH]c1=S | inconclusive: 10 µM [inhibitor, partial curve]
12 | CCOC(=O)N1CCc2c(sc(NCc3cccc(F)c3)c2C(=O)Nc2ccccc2OCC)C1 | inconclusive: 2.82 µM [inhibitor, full curve]
13 | CCc1cc(-c2n[nH]c(=S)n2-c2cccc(C)c2)cs1 | active: 11.2 µM
14 | CCCOc1c(Br)cc(C(=O)OCC(=O)NC(=O)c2cccn2C)cc1OC | inconclusive: 35.5 µM [inhibitor, single point]
15 | C=CCn1c(-c2sccc2C)n[nH]c1=S | inconclusive: 12.6 µM [inhibitor, partial curve]
16 | CCOc1ccc(/C=C2/C(=N)N3OC(C)=CC3=NC2=O)cc1OC | inconclusive: 44.7 µM [inhibitor, partial curve, poor fit]
17 | N#Cc1c(N)c(C#N)c(-c2ccc3c(c2)OCO3)c2c1CCCC2 | inactive
18 | CC(C)COC(=O)n1c(SCC(N)=O)nc2ccccc21 | inactive
19 | CCOC(=O)C1CCN(c2ccc(-c3cccs3)nn2)CC1 | inconclusive: 35.5 µM [inhibitor, single point]
20 | CC1CC(C)CN(C(=O)c2ccc3ncsc3c2)C1 (stereo not drawn) | inconclusive: 50.1 µM [inhibitor, single point]
21 | CCc1n[nH]c(=S)n1/N=C/c1ccc(-c2ccc(Br)cc2)o1 | inconclusive: 0.794 µM [inhibitor, full curve, poor fit]
22 | Cc1ccc(C(=O)NC(=S)NNC(=O)c2ccccc2[N+](=O)[O-])cc1 | inconclusive: 28.2 µM [inhibitor, partial curve, poor fit]
23 | FC(F)(F)c1nc(=S)c2ccccc2[nH]1 | inconclusive: 31.6 µM [inhibitor, partial curve]

Row | SMILES | Potency
24 | COc1ccc(-c2nnc(C3CCN(C(=O)c4ccccc4F)CC3)o2)cc1 | inconclusive: 17.8 µM [inhibitor, partial curve]
25 | CN(C)c1ccc(N2C(=O)CC(Nc3ccc(N4CCOCC4)cc3)C2=O)cc1 (stereo not drawn) | inactive
26 | CN(C(=O)CSc1nc2cc([N+](=O)[O-])ccc2n1-c1ccc(F)cc1)C1CCS(=O)(=O)C1 (stereo not drawn) | inconclusive: 11.2 µM [inhibitor, partial curve, poor fit]
27 | Cc1ccc(NC(=O)CSc2nc3ncccc3[nH]2)cc1F | inactive
28 | CC(=O)c1ccc(OC(C)C)c(Cc2c(O)[nH]c(=S)[nH]c2=O)c1 | inconclusive: 22.4 µM [inhibitor, partial curve, poor fit]
29 | COc1cc(C)c(C(=O)Oc2cc(C)c(C(=O)O)c(O)c2C)c(O)c1C(=O)O | inconclusive: 35.5 µM [inhibitor, partial curve, poor fit]
30 | Cc1cc(C)nc(Nc2n[nH]c(COc3ccccc3)n2)n1 | inconclusive: 50.1 µM [inhibitor, single point]
31 | CC(C)c1ccc(NC(=O)Nc2nc(C(N)C(C)C)cs2)cc1 (stereo not drawn) | inconclusive: 35.5 µM [inhibitor, single point]
32 | CCOc1ccc(Nc2nc(N)c3ccccc3n2)cc1 | inconclusive: 39.8 µM [inhibitor, single point]
33 | Cc1ccc(-c2n[nH]c(=S)n2/N=C/c2ccc(C)s2)cc1 | inconclusive: 3.98 µM [inhibitor, full curve]
34 | Oc1ccc(N=Cc2ccc(O)c(O)c2)cc1 | inconclusive: 25.1 µM [inhibitor, partial curve]
35 | O=C(CCS(=O)(=O)Cc1ccccc1)N1CCc2ccccc2C1 | inconclusive: 50.1 µM [inhibitor, single point]
36 | Cc1c(C#N)c(NC(=O)CCl)n(Cc2ccccc2)c1C | inactive
37 | CCOC(=O)c1cccc(NC(=O)c2cnccn2)c1 | inconclusive: 28.2 µM [inhibitor, single point]
38 | C[C@@H]1CN([C@@H](C)CO)C(=O)c2cc(N(C)C)ccc2O[C@@H](C)CCCCO[C@@H]1CN(C)Cc1ccc2c(c1)OCO2 | inconclusive: 15.8 µM [inhibitor, partial curve, poor fit]
39 | CCN1CCN(c2nc(Nc3ccccc3F)nc(N)c2[N+](=O)[O-])CC1 | inactive
40 | COc1ccc(Cn2c(C(=O)O)c(CNCCc3cccs3)c3ccc(C)cc32)cc1 | inactive
41 | CCOC(=O)c1ccc(/[N+]([O-])=C/c2ccccc2)cc1 | inconclusive: 25.1 µM [inhibitor, partial curve]
42 | CCOc1cccc(CNc2ccc(O)cc2)c1OCc1ccc(Cl)cc1Cl | inconclusive: 5.62 µM [inhibitor, partial curve]
43 | Cc1nn(-c2ccccn2)c2c1C(=O)C(Br)CC2 (stereo not drawn) | inconclusive: 7.08 µM [inhibitor, full curve, poor fit]
44 | CCOC(=O)C1=C(O)c2ccccc2C(=O)/C1=C\c1ccc(CC)cc1 | inconclusive: 22.4 µM [inhibitor, partial curve, poor fit]
45 | COC(=O)C1=C(C(=O)OC)C2OC1c1cc3ccccc3cc12 | active: 28.2 µM
46 | O=C1NC(=O)N(c2ccccc2)C(=O)/C1=C/C=C/c1ccco1 | inconclusive: 35.5 µM [inhibitor, single point]

Row | SMILES | Potency
47 | O=C(Nc1nc2ccc(F)cc2s1)C1=COCCO1 | inconclusive: 31.6 µM [inhibitor, partial curve, poor fit]
48 | O=C(O)c1ccc(-n2c(-c3ccc(Br)cc3)n[nH]c2=S)cc1 | inconclusive: 11.2 µM [inhibitor, partial curve, poor fit]
49 | O=C(/C=C/c1ccco1)NCC(=O)N/N=C/c1ccc([N+](=O)[O-])cc1 | inconclusive: 44.7 µM [inhibitor, single point]
50 | Cn1c(=O)c2c(ncn2CC(=O)N/N=C/C=C/c2ccco2)n(C)c1=O | inactive
51 | CCN(CC)c1ccc(N=Cc2ccc([N+](=O)[O-])o2)cc1 | inconclusive: 35.5 µM [inhibitor, partial curve, poor fit]
52 | S=c1cnc2ccccc2[nH]1 | inconclusive: 22.4 µM [inhibitor, partial curve]
53 | CC(C)c1ccc(N2C(=O)CC(Sc3nc4ccccc4o3)C2=O)cc1 (stereo not drawn) | inactive
54 | CCOc1ccc(OCCCC(=O)N2CCN(S(=O)(=O)c3ccc(Cl)cc3)CC2)cc1 | inconclusive: 35.5 µM [inhibitor, partial curve, poor fit]
55 | COc1cc(/C=N/n2c(SC)nnc(C(C)(C)C)c2=O)ccc1O | inactive
56 | O=C1NC(=O)N(c2ccccc2)C(=O)/C1=C/c1ccc([N+](=O)[O-])s1 | active: 17.8 µM
57 | CN=C1S/C(=C\c2cc(C)n(-c3ccccc3F)c2C)C(=O)N1C | inactive
58 | O=C1N[C@@H](Cc2ccccc2)COC(=O)[C@@H](Cc2ccc(F)cc2)CC/C=C/C[C@@H]1CC(=O)N(CCO)Cc1ccccc1 | inactive
59 | CCOc1ccc2nc(N3C(=O)CNC3=S)sc2c1 | inconclusive: 35.5 µM [inhibitor, partial curve, poor fit]
60 | CSc1ccc(-c2ccco2)nn1 | inactive
61 | Cc1cc(C)cc(Oc2nn[nH]n2)c1 | inconclusive: 50.1 µM [inhibitor, single point]
62 | COc1cc(NC(=O)Cc2cccs2)cc(OC)c1 | inconclusive: 44.7 µM [inhibitor, single point]
63 | CC(=O)c1ccc(NC(=O)c2sc3nc(N4CCOCC4)c4c(c3c2N)CCCC4)cc1 | inconclusive: 5.62 µM [inhibitor, partial curve, poor fit]
64 | CCc1nn(C)c(-c2n[nH]c(=S)n2N)c1Cl | inconclusive: 25.1 µM [inhibitor, partial curve, poor fit]
65 | Cc1ccc(/C=C/c2nc3ccccc3[nH]2)cc1 | inconclusive: 35.5 µM [inhibitor, partial curve, poor fit]
66 | COc1ccc(OC)c(NC(=O)c2c(NCc3cccs3)sc3c2CCCC3)c1 | inconclusive: 39.8 µM [inhibitor, partial curve, poor fit]
67 | O=c1[nH]c(-c2ccncc2)nc2ccccc12 | inconclusive: 35.5 µM [inhibitor, partial curve, poor fit]
68 | CCCN(C(=O)c1noc2c1COc1ccc(C)cc1-2)c1ccc(Cl)c(Cl)c1 | inconclusive: 20 µM [inhibitor, partial curve]
